Patent US9803019B2, “Carrier immunoglobulins and uses thereof” (Amgen Inc., priority 2010, dated 2017)

Experiments:
[1] = Light sensitivity: 3 days fluorescent light vs dark, SEC / HIC analysis; format: physicochemical; details: 3 days at room temperature, ambient fluorescent light vs aluminum foil
Protocol: Samples were eluted at 0.8 ml/min with a 0-100% linear gradient over 50 minutes observing the absorbance at 220 nm.
To measure the light sensitivity of the antibodies, they were incubated in ambient lab fluorescent lighting or covered in aluminum foil for 3 days at room temperature. Light exposed and dark control antibodies were then analyzed using two size exclusion columns (TSK-GEL G3000SWXL, 5 mm particle size, 7.8×300 mm, TosohBioscience, 08541) in series with a 100 mM sodium phosphate, 250 mM NaCl, pH 6.8, mobile phase flowed at 0.5 mL/min. […] The antibodies were then analyzed by hydrophobic interaction chromatography (HIC) using two Dionex ProPac HIC-10 columns in series with mobile phase A being 1 M ammonium sulfate, 20 mM sodium acetate, pH 5.0 and mobile phase B being 20 mM sodium acetate, 5% acetonitrile, pH 5.0. Samples were eluted at 0.8 ml/min with a 0-100% linear gradient over 50 minutes observing the absorbance at 220 nm.
To measure the light sensitivity of the antibodies, they were incubated in ambient lab fluorescent lighting or covered in aluminum foil for 3 days at room temperature. The antibodies were then analyzed by hydrophobic interaction chromatography using two Dionex ProPac HIC-10 columns in series with mobile phase A being 1 M ammonium sulfate, 20 mM sodium acetate, pH 5.0 and mobile phase B being 20 mM sodium acetate, 5% acetonitrile, pH 5.0. […]

[2] = Cynomolgus PK, sequential SC doses (Example 10); format: in vivo, cynomolgus monkeys
Protocol: The pharmacokinetic profiles of the 16435 and 4341 antibodies were also determined in cynomolgus monkeys (n=2 per group) by injecting of two subsequent subcutaneous doses of 1 mg/kg at day 0 and 5 mg/kg at day 57. Serum samples were collected at pre-dose, 0.5, 2, 4, 8, 12, 24, 48, 96, 168, 336, 504, 672, 840, 1008, 1176, 1344 (prior to second dose) hours post 1st dose at 1 mg/kg and 0.5, 2, 4, 8, 12, 24, 48, 96, 168, 336, 360, 384, 432, 504, 672, 840, 1008, 1176, 1344 following post 2nd dose at 5 mg/kg. The samples were assayed for the 16435 and 4341 antibody levels by using an anti-IgG sandwich ELISA as described above. Time concentration data were analyzed using non-compartmental methods with WinNonLin®. […] If there had been a significant immune response causing abnormal antibody clearance, it would have been expected after the second dose, due to immune system priming by the first dose.

Colo205 cells = assay: Colo205 cell based caspase-3/7 apoptosis assay; parameters: species or system human; details: Colo205, relative luminescence (FIG. 20C)
Protocol: Samples of antibodies 4241 and 4341 were compared with positive control IgG1 anti-TR2 mAb 16449. The prepared antibody samples were added to TRAIL-sensitive human ascites colorectal adenocarcinoma cell line Colo205. The detection of TRAIL-mediated caspase-3 activation by measuring an increase in relative luminescence was used as a positive marker for apoptosis.
Colo205 is a human colon carcinoma cell line that is sensitive to the presence of TRAIL. […] A Colo205 based cell assay was developed to verify the cell killing efficacy of antibodies. The in vitro biological activity of the Antibody 16449 (anti-TRAIL-R2 antibody) is analyzed by its ability to induce apoptosis in human ascites colorectal adenocarcinoma cell line Colo205. The detection of caspase-3 activation is used as a positive marker for apoptosis, using the Apo-One™ Homogeneous Caspase™-3/7 assay kit (PromegaCorporation, Madison, Wis.), according to the manufacturer's instruction. (see, Niles et al., The Apo-One™. Homogeneous Caspase™-3/7 assay: a simplified “solution” for apoptosis detection, Cell Notes 2:2-3 (2001)). […] Luminescence produced is proportional to the amount of caspase activity present. The luminescence of each sample is measured in a plate-reading luminometer. Biological activity of the test sample is determined by comparing test sample response to Reference Standard response. […]

B1: 4341 (antibody)
heavy: QVQLQESGPGLVKPSQTLSLTCTVSGGSISSGDYFWSWIRQLPGKGLEWIGHIHNSGTTYYNPSLKSRVTISVDTSKKQFSLRLSSVTAADTAVYYCARDRGGDYAYGMDVWGQGTTVTVSSASTKGPSVFPLAPSSKSTSGGTAALGCLVKDYFPEPVTVSWNSGALTSGVHTFPAVLQSSGLYSLSSVVTVPSSSLGTQTYICNVNHKPSNTKVDKRV[here human IgG1 Fc without letters]
light: EIVLTQSPGTLSLSPGERATLSCRASQGISRSELAWYQQKPGQAPSLLIYGASSRATGIPDRFSGSGSGTDFTLTISRLEPEDFAVYYCQQFGSSPWTFGQGTKVEIKRTVAAPSVFIFPPSDEQLKSGTASVVCLLNNFYPREAKVQWKVDNALQSGNSQESVTEQDSKDSTYSLSSTLTLSKADYEKHKVYACEVTHQGLSSPVTKSFNRGEC
Q: For B1, which “light sensitivity (HIC chromatograms with and without light exposure)” value [1] is on record?
A: Its value is “neither antibody displayed significant differences”.

Q: What about the “change in clearance mediated by an immune response after multiple dosing” value ([2]; 1 mg/kg day 0 then 5 mg/kg day 57 SC (FIG. 44)) of the same molecule?
A: Its value is “no indication of a significant change in the clearance mediated by an immune response”.

Q: And the “clearance in monkey (in words)” value ([2]; SC)?
A: The value was “normal hu IgG clearance in monkey”.

Q: What about the half life ([2]; SC) of the same molecule?
A: The half life was roughly 21 days.

Q: And the AUC0-inf ([2]; SC 5 mg/kg)?
A: The AUC0-inf was 51,909,826 ng · h/mL.

Q: What about the AUC0-t ([2]; SC 5 mg/kg) of the same molecule?
A: The AUC0-t was 43,578,088 ng · h/mL.

Q: What about the CL/F ([2]; SC 5 mg/kg) of the same molecule?
A: Its CL/F is 2.3 mL/day/kg.

Q: What about the Cmax ([2]; SC 5 mg/kg) of the same molecule?
A: Its Cmax is 68,166 ng/mL.

Q: What about the MRT ([2]; SC 5 mg/kg) of the same molecule?
A: The MRT was 30.8 days.

Q: What about the Tmax ([2]; SC 5 mg/kg) of the same molecule?
A: The Tmax was 4 days.

Q: And the T1/2 ([2]; SC 5 mg/kg (second dose, day 57, after 1 mg/kg at day 0))?
A: Its T1/2 is 20.9 days.

Q: What about the caspase-3 activation (Colo205 cells) of the same molecule?
A: The caspase-3 activation was “failed to activate caspase-3”.
